Source: PubChem BioAssay (NCATS)
Values joined by “and” are separate entries in the source; they are usually repeats but may differ in a detail not shown here. Equal entries are not always repeated. This list was built around the results that the source calls inconclusive (neither active nor inactive); the mix of calls is not that of the screen. A potency beside an inconclusive call is a rough fit, not a confirmed value. Active and inactive are the calls of the source. Calls come from the whole dose curve; as a rule, active = well fitted curve in the direction sought with a large enough effect; inconclusive = small, poorly fitted or top-dose-only effect, or another doubt; inactive = no such curve, though single readings can be large; an effect the other way counts as inactive or inconclusive.

Assays:
[1] = qHTS Screen of the MIPE 4.0 Collection Against Ewings Sarcoma (RDES) (AID 1259252); note: nearly all actives have a fitted effect of over 35% in size
Procedure, shortened: (§1)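 Dose series incubated 48 h with cells in RPMI plus 5% FBS, glutamine and penicillin/streptomycin; cell viability then quantified via CellTiter-Glo.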

[2] = qHTS Screen of the MIPE 4.0 Collection Against Ewings Sarcoma (TC32) (AID 1259256); note: nearly all actives have a fitted effect of over 45% in size
Procedure, shortened: as §1

[3] = P-glycoprotein substrates identified in KB-8-5-11 adenocarcinoma cell line, qHTS therapeutic library screen (AID 1346987); note: nearly all actives have a fitted effect of over 65% in size
Procedure, shortened: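 P-gp-mediated resistance screen: KB-8-5-11 cells treated 72 h with compounds in dose-response. CellTiter-Glo viability.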

[4] = qHTS assay to identify small molecule inhibitors of chordoma cells - UCH-1 (AID 1259355); note: series mostly up to about 46 µM; nearly all actives have a fitted effect of over 55% in size
Procedure, shortened: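 Cells (800/well) were seeded and left overnight at 37 C, 5% CO2, then treated with drugs at 15 concentrations plus a combination mix of auranofin, camptothecin, doxorubicin, rubitecan and topotecan. Viability after 48hr was read by CellTiter-Glo luminescence.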
Potency is the fitted concentration of half-maximal effect; tags give direction and shape of the fitted curve.

Compound	Potency [1]	Potency [2]	Potency [3]	Potency [4]
Oc1ccc(-c2ccc(-c3cc(Nc4cccc(CNC5CC5)c4)n[nH]3)cc2)c(O)c1	active: 1.48 µM	active: 5.9 µM	inconclusive: 29.1 µM [inhibitor, single point]	
CCCNCC(O)COc1ccccc1C(=O)CCc1ccccc1 (stereo not given)	inconclusive: 23.5 µM [inhibitor, partial curve, poor fit]	inconclusive: 33.2 µM [inhibitor, single point]	inconclusive: 18.7 µM [inhibitor, partial curve] and inconclusive: 5.17 µM [inhibitor, full curve]	
CCN1C[C@H](C)n2c(c(O)c3c(=O)n(Cc4ccc(F)c(Cl)c4)nc(C(=O)NC)c32)C1=O	inactive	inconclusive: 20.9 µM [inhibitor, single point]	inconclusive: 16.6 µM [inhibitor, partial curve] and inconclusive: 23.1 µM [inhibitor, partial curve, poor fit]	
NCC1CCC(C(=O)O)CC1 (stereo not given)	inactive	inconclusive: 13.2 µM [inhibitor, partial curve, poor fit]		inconclusive: 0.0003 µM [cytotoxic]
Nc1ccn([C@@H]2O[C@H](CO)[C@@H](O)[C@H]2O)c(=O)n1	inconclusive: 0.0264 µM [inhibitor, full curve]	inconclusive: 0.0013 µM [inhibitor, full curve, poor fit]	inconclusive: 2.35 µM [inhibitor, partial curve]	
